Test results from the supplement of paper PMC6206098.
± gives the uncertainty stated by the source. The sequences are guide strands of siRNAs; only the seed at positions 2 to 7 varies.

What was measured:
[1] = tested on: 3LL; assay: cell viability relative to siNT1 control; higher = less toxic; details: concentration: 10 nM; 96 h; Mus musculus;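 further: Luminescence-based viability of cells reverse transfected in 384-well plates with lipid-complexed siRNAs built on a non-toxic 19mer backbone whose passenger strand carries 2′-O-methyl groups at positions 1 and 2, triplicates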
[2] = tested on: H460; assay: cell viability relative to lipid-only control; HeyA8 human ovarian and H460 human lung cancer; M565 mouse liver and 3LL mouse lung cancer; siNT1 is a non-toxic control siRNA; higher = less toxic; details: concentration: 10 nM; 96 h; Homo sapiens
[3] = tested on: HeyA8; assay: as above; details: concentration: 10 nM; 96 h; Homo sapiens
[4] = tested on: M565; assay: as above; details: concentration: 10 nM; 96 h; Mus musculus
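Wherever cell viability relative to lipid-only control is given: reverse lipid transfection in 384-well plates, in triplicate, of duplexes on a non-toxic 19mer backbone with passenger strand 2′-O-methylated at positions 1 and 2, luminescence viability read-out.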

UUGAGGGACAUGUAAACCAAA
cell viability [1]: 50 ± 3.7%
cell viability [2]: 37 ± 6.2%
cell viability [3]: 57 ± 6.1%
cell viability [4]: 15.5 ± 0.89%

UUGAGGUACAUGUAAACCAAA
cell viability [1]: 16.8 ± 5.3%
cell viability [2]: 38.1 ± 4.9%
cell viability [3]: 41.8 ± 1%
cell viability [4]: 9.22 ± 0.33%

UUGAGUAACAUGUAAACCAAA
cell viability [1]: 54.9 ± 7.7%
cell viability [2]: 70.4 ± 8.3%
cell viability [3]: 98.3 ± 5.8%
cell viability [4]: 62.8 ± 9.6%

UUGAGUCACAUGUAAACCAAA
cell viability [1]: 45.8 ± 8.3%
cell viability [2]: 58.7 ± 6.1%
cell viability [3]: 68.9 ± 6%
cell viability [4]: 12.1 ± 0.97%

UUGAGUGACAUGUAAACCAAA
cell viability [1]: 85 ± 3.5%
cell viability [2]: 62.9 ± 9.3%
cell viability [3]: 86 ± 6.9%
cell viability [4]: 60.5 ± 6.1%

UUGAGUUACAUGUAAACCAAA
cell viability [1]: 95.7 ± 12%
cell viability [2]: 82.6 ± 16%
cell viability [3]: 86 ± 11%
cell viability [4]: 98.9 ± 12%

UUGAUAAACAUGUAAACCAAA
cell viability [1]: 97.5 ± 8.4%
cell viability [2]: 66.5 ± 8.8%
cell viability [3]: 91.6 ± 4.9%
cell viability [4]: 109 ± 14%

UUGAUACACAUGUAAACCAAA
cell viability [1]: 81.2 ± 3.2%
cell viability [2]: 55.6 ± 2.7%
cell viability [3]: 76.8 ± 1.4%
cell viability [4]: 61.7 ± 6.9%

UUGAUAGACAUGUAAACCAAA
cell viability [1]: 67 ± 2.5%
cell viability [2]: 51.2 ± 7.8%
cell viability [3]: 91.2 ± 6.4%
cell viability [4]: 96.7 ± 12%

UUGAUAUACAUGUAAACCAAA
cell viability [1]: 84.2 ± 13%
cell viability [2]: 77.9 ± 8.2%
cell viability [3]: 74.8 ± 2.5%
cell viability [4]: 109 ± 33%

UUGAUCAACAUGUAAACCAAA
cell viability [1]: 92.4 ± 9.4%
cell viability [2]: 63.2 ± 8.8%
cell viability [3]: 71.8 ± 9.7%
cell viability [4]: 92.7 ± 2.3%

UUGAUCCACAUGUAAACCAAA
cell viability [1]: 58.7 ± 2.4%
cell viability [2]: 60.3 ± 5%
cell viability [3]: 72.3 ± 1.1%
cell viability [4]: 29.5 ± 13%

UUGAUCGACAUGUAAACCAAA
cell viability [1]: 84.1 ± 3.4%
cell viability [2]: 63 ± 2.1%
cell viability [3]: 77.6 ± 8.8%
cell viability [4]: 76.7 ± 4.7%

UUGAUCUACAUGUAAACCAAA
cell viability [1]: 92.4 ± 1.8%
cell viability [2]: 92.2 ± 13%
cell viability [3]: 79.7 ± 1%
cell viability [4]: 79.8 ± 20%

UUGAUGAACAUGUAAACCAAA
cell viability [1]: 79.9 ± 5.9%
cell viability [2]: 66 ± 7.6%
cell viability [3]: 71.2 ± 10%
cell viability [4]: 104 ± 7.4%

UUGAUGCACAUGUAAACCAAA
cell viability [1]: 33.4 ± 5.2%
cell viability [2]: 50.7 ± 6.2%
cell viability [3]: 52.4 ± 6.3%
cell viability [4]: 52.3 ± 11%

UUGAUGGACAUGUAAACCAAA
cell viability [1]: 23.2 ± 0.94%
cell viability [2]: 65.4 ± 13%
cell viability [3]: 65.5 ± 2.9%
cell viability [4]: 31.2 ± 6.5%

UUGAUGUACAUGUAAACCAAA
cell viability [1]: 74.6 ± 7.5%
cell viability [2]: 91.4 ± 3.1%
cell viability [3]: 41.43 ± 0.3%
cell viability [4]: 30.9 ± 9%

UUGAUUAACAUGUAAACCAAA
cell viability [1]: 88 ± 11%
cell viability [2]: 89.1 ± 21%
cell viability [3]: 90.2 ± 7.1%
cell viability [4]: 109 ± 21%

UUGAUUCACAUGUAAACCAAA
cell viability [1]: 33.1 ± 2.6%
cell viability [2]: 51.8 ± 6.9%
cell viability [3]: 63.1 ± 2.9%
cell viability [4]: 68 ± 10%

UUGAUUGACAUGUAAACCAAA
cell viability [1]: 87.6 ± 8.3%
cell viability [2]: 84 ± 14%
cell viability [3]: 86.7 ± 2.6%
cell viability [4]: 111 ± 2.4%

UUGAUUUACAUGUAAACCAAA
cell viability [1]: 83.8 ± 3.7%
cell viability [2]: 65.2 ± 7.4%
cell viability [3]: 92.6 ± 6.6%
cell viability [4]: 95.5 ± 16%

UUGCAAAACAUGUAAACCAAA
cell viability [1]: 107 ± 5.4%
cell viability [2]: 91.3 ± 17%
cell viability [3]: 94.2 ± 3.3%
cell viability [4]: 100 ± 11%

UUGCAACACAUGUAAACCAAA
cell viability [1]: 9.23 ± 4%
cell viability [2]: 16.3 ± 3.4%
cell viability [3]: 18 ± 2.7%
cell viability [4]: 67.5 ± 0.95%

UUGCAAGACAUGUAAACCAAA
cell viability [1]: 79.5 ± 8.6%
cell viability [2]: 89.9 ± 14%
cell viability [3]: 97.3 ± 7.3%
cell viability [4]: 84.9 ± 16%

UUGCAAUACAUGUAAACCAAA
cell viability [1]: 80.8 ± 2.4%
cell viability [2]: 65 ± 3.8%
cell viability [3]: 85.2 ± 5.3%
cell viability [4]: 111 ± 20%

UUGCACAACAUGUAAACCAAA
cell viability [1]: 66.4 ± 5%
cell viability [2]: 46.6 ± 4.6%
cell viability [3]: 80.6 ± 3.9%
cell viability [4]: 65.9 ± 17%

UUGCACCACAUGUAAACCAAA
cell viability [1]: 14.6 ± 2.4%
cell viability [2]: 29 ± 3.2%
cell viability [3]: 41.9 ± 5.8%
cell viability [4]: 44.9 ± 15%

UUGCACGACAUGUAAACCAAA
cell viability [1]: 75.1 ± 6.3%
cell viability [2]: 69.4 ± 4.2%
cell viability [3]: 87.6 ± 4.4%
cell viability [4]: 72 ± 13%

UUGCACUACAUGUAAACCAAA
cell viability [1]: 30.2 ± 5%
cell viability [2]: 53.1 ± 3.8%
cell viability [3]: 59.66 ± 0.23%
cell viability [4]: 102 ± 16%

UUGCAGAACAUGUAAACCAAA
cell viability [1]: 67.9 ± 5.7%
cell viability [2]: 69.6 ± 6.8%
cell viability [3]: 77 ± 1.3%
cell viability [4]: 65.2 ± 11%

UUGCAGCACAUGUAAACCAAA
cell viability [1]: 9.19 ± 0.58%
cell viability [2]: 54.9 ± 2.5%
cell viability [3]: 70.5 ± 2.1%
cell viability [4]: 33.6 ± 4.9%

UUGCAGGACAUGUAAACCAAA
cell viability [1]: 30.8 ± 6.3%
cell viability [2]: 11.9 ± 1.1%
cell viability [3]: 18.4 ± 0.9%
cell viability [4]: 43.8 ± 8.8%

UUGCAGUACAUGUAAACCAAA
cell viability [1]: 43.4 ± 8.3%
cell viability [2]: 58.9 ± 6.8%
cell viability [3]: 69.5 ± 5.2%
cell viability [4]: 95.5 ± 23%

UUGCAUAACAUGUAAACCAAA
cell viability [1]: 100 ± 7.6%
cell viability [2]: 79.2 ± 1.5%
cell viability [3]: 94.6 ± 11%
cell viability [4]: 117 ± 10%

UUGCAUCACAUGUAAACCAAA
cell viability [1]: 39.9 ± 3.8%
cell viability [2]: 33.4 ± 3.3%
cell viability [3]: 28.3 ± 3.9%
cell viability [4]: 80.6 ± 8.6%

UUGCAUGACAUGUAAACCAAA
cell viability [1]: 80.9 ± 5.1%
cell viability [2]: 55 ± 7%
cell viability [3]: 72.4 ± 3.9%
cell viability [4]: 53.6 ± 12%

UUGCAUUACAUGUAAACCAAA
cell viability [1]: 79.7 ± 4.8%
cell viability [2]: 74.6 ± 6.7%
cell viability [3]: 66.5 ± 4.3%
cell viability [4]: 101 ± 11%

UUGCCAAACAUGUAAACCAAA
cell viability [1]: 46.8 ± 13%
cell viability [2]: 60.2 ± 4.5%
cell viability [3]: 84.8 ± 5.1%
cell viability [4]: 37.2 ± 11%

UUGCCACACAUGUAAACCAAA
cell viability [1]: 10.8 ± 5.5%
cell viability [2]: 45.5 ± 4.3%
cell viability [3]: 37.8 ± 2.5%
cell viability [4]: 22.8 ± 4.8%

UUGCCAGACAUGUAAACCAAA
cell viability [1]: 53.5 ± 5.7%
cell viability [2]: 37.6 ± 4.5%
cell viability [3]: 69.3 ± 3%
cell viability [4]: 51.9 ± 13%

UUGCCAUACAUGUAAACCAAA
cell viability [1]: 61.8 ± 9.7%
cell viability [2]: 42.6 ± 1.7%
cell viability [3]: 28.4 ± 2.4%
cell viability [4]: 31 ± 4.5%

UUGCCCAACAUGUAAACCAAA
cell viability [1]: 40.9 ± 8.1%
cell viability [2]: 79 ± 6.8%
cell viability [3]: 88.2 ± 5.2%
cell viability [4]: 81.2 ± 11%

UUGCCCCACAUGUAAACCAAA
cell viability [1]: 4.92 ± 2.1%
cell viability [2]: 62.8 ± 4.9%
cell viability [3]: 79.9 ± 10%
cell viability [4]: 16 ± 2.3%

UUGCCCGACAUGUAAACCAAA
cell viability [1]: 43.5 ± 6.2%
cell viability [2]: 76.4 ± 5.8%
cell viability [3]: 96 ± 5.7%
cell viability [4]: 49.4 ± 7.4%

UUGCCCUACAUGUAAACCAAA
cell viability [1]: 11.9 ± 4.3%
cell viability [2]: 45.6 ± 6.3%
cell viability [3]: 69.4 ± 3.4%
cell viability [4]: 31.9 ± 5.6%

UUGCCGAACAUGUAAACCAAA
cell viability [1]: 73.5 ± 4.2%
cell viability [2]: 81.4 ± 5.7%
cell viability [3]: 96.9 ± 4.8%
cell viability [4]: 54.4 ± 9.2%

UUGCCGCACAUGUAAACCAAA
cell viability [1]: 3.79 ± 0.23%
cell viability [2]: 61.6 ± 2.8%
cell viability [3]: 63.4 ± 6.7%
cell viability [4]: 14.4 ± 3.1%

UUGCCGGACAUGUAAACCAAA
cell viability [1]: 32.8 ± 4.7%
cell viability [2]: 36.9 ± 3.4%
cell viability [3]: 59.1 ± 3.8%
cell viability [4]: 55.3 ± 20%

UUGCCGUACAUGUAAACCAAA
cell viability [1]: 13.1 ± 0.45%
cell viability [2]: 73.8 ± 8%
cell viability [3]: 96.6 ± 9.8%
cell viability [4]: 21.8 ± 6%

UUGCCUAACAUGUAAACCAAA
cell viability [1]: 88.7 ± 9.8%
cell viability [2]: 84.4 ± 2.1%
cell viability [3]: 97.2 ± 9.7%
cell viability [4]: 59.7 ± 9.8%

UUGCCUCACAUGUAAACCAAA
cell viability [1]: 28.4 ± 3.4%
cell viability [2]: 56.3 ± 2.9%
cell viability [3]: 73.5 ± 4.1%
cell viability [4]: 15.8 ± 3.5%

UUGCCUGACAUGUAAACCAAA
cell viability [1]: 45.5 ± 7.9%
cell viability [2]: 17.1 ± 0.89%
cell viability [3]: 5.96 ± 0.57%
cell viability [4]: 53.4 ± 4.4%

UUGCCUUACAUGUAAACCAAA
cell viability [1]: 21.4 ± 0.8%
cell viability [2]: 35.1 ± 7%
cell viability [3]: 24.1 ± 1.8%
cell viability [4]: 30.9 ± 1.9%

UUGCGAAACAUGUAAACCAAA
cell viability [1]: 105 ± 7.6%
cell viability [2]: 118 ± 12%
cell viability [3]: 95 ± 16%
cell viability [4]: 90.3 ± 14%

UUGCGACACAUGUAAACCAAA
cell viability [1]: 15.1 ± 11%
cell viability [2]: 20.6 ± 1%
cell viability [3]: 35.7 ± 2.6%
cell viability [4]: 61.9 ± 10%

UUGCGAGACAUGUAAACCAAA
cell viability [1]: 60.1 ± 9.5%
cell viability [2]: 94.7 ± 12%
cell viability [3]: 97.1 ± 7.4%
cell viability [4]: 62.4 ± 11%

UUGCGAUACAUGUAAACCAAA
cell viability [1]: 44.5 ± 3.6%
cell viability [2]: 45.5 ± 0.98%
cell viability [3]: 91.1 ± 13%
cell viability [4]: 56.9 ± 16%

UUGCGCAACAUGUAAACCAAA
cell viability [1]: 87.8 ± 1.9%
cell viability [2]: 97 ± 6.2%
cell viability [3]: 88.5 ± 12%
cell viability [4]: 93.9 ± 17%
